The chains are these.
B1: tRNA (parent)
chain: CUCUCGGUAGCCAAGUUGGUUUAAGGCGCAAGACUUUAAUUUAUCACUACGAAAUCUUGAGAUCGGGCGUUCGACUCGCCCCCGGGAGAUUUUUUCCUCGAGCAA

Variants at the background level are over-represented here. Some results are limits rather than exact numbers.

Variants of B1 are the subject of this data set. In words: nonsense suppression (GFP-seq) (ratio to wild type); higher = more function; SUP4oc tRNA, yeast GFP reporter sort-seq. The method in brief: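 Raffinose/galactose medium with 80 mg/L adenine was used to grow yeast carrying genome-integrated tRNA variants (~3% random-mutation library), RFP, and a galactose-driven GFP ochre reporter. Cells went into GFP/RFP bins, which were Illumina-sequenced, and variants with ≥100 reads and ≥30 cells were scored. Nonsense suppression (GFPSEQ) is the per-bin median GFP/RFP weighted by estimated cell share and expressed relative to the unmutated parent tRNA.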
For CUCUCGGUAGCCAAGUUGGCUUAAGGCGCAAGACUUUAAUUUAUCACUACGAAAUCUUGAGAUCGGGCGUUCGACUAGCCCCCGGGCGAUUUUUUCCUCGAGCAA [U20C C77A A87C], the nonsense suppression was ≤ 0.026.
As for CUCUCGGGACCCAAGUUGGUUUAAGGCGCAAGACUUUAAUUUAUCACUACGAAAUCUUGAGAUCGCGCGUUCGACUCGCCCCCGGGAGAUUUUUUCCUCGAGCAA [U8G G10C G66C], the nonsense suppression was ≤ 0.026.
As for CUCUCGCUAGCCAAGUUGGUUUAAGGCGCAAGAUUUUAAUUUAUCACUACGAAAUCUUGAGAUCGGGCGUUCGACCCGCCCCCGGGAGCUUUUUUCCUCGAGCAA [G7C C34U U76C A89C], the figure is ≤ 0.026; as for CUCUCGGUAGCCAAGUUGGUUUAAGGCGCAUGACUUUAAUUUAUCACUACGAAAUCUUGAGAUCGGGCGUUCGACUCGCCCCCGGGAUAUUUUUUCCUCGAGCAA [A31U G88U], ≤ 0.026.
As for CUCUCGGUAGCCAAGUUGGCUUAAGGCGCAAGACUUUAAUUUAUCACUACGAAAUCUUGAGAUCGGGCGUUCGACUCGCCCCCAGGAGAUUUUUUCCUCGAGCAA [U20C G84A], the figure is ≤ 0.026; as for CUCUCGGUAGUCAAGUUGGUAUAAGGCGCAAGACUUUAAUUUAUCACUACGAAAUCUUGAGAUCUGGCGUUCGACUCGCCCCCGGGAGAUUUUUUCCUCGAGCAA [C11U U21A G65U], ≤ 0.026.
As for CUCUCGGUAGCCAAGUUGGUUUAAGGCGCAAGAUUUUAAUUUAUCACUACGAAAUCUUGCGAUCGGGCGUUGGACUCGCCCCCGGGAGAUUUUUUCCUCGAGCAA [C34U A60C C72G], the figure is ≤ 0.026; as for CUCUCGGUAGCCAAGUUGGUUUAAGGCGCAAGACUUUAAUUUAUCACUACGAAAUCUUGAGAUCGGCCGUUCGACUCGCCCCAGGGAGAUUUUUUCCUCGAGCAA [G67C C83A], ≤ 0.026.
Take CUCUCGGAAGCCAAGUUGGUAUAAGGCGCAAGACUUUAAUUUAUCACUACGAAAUCUUGAGAUCGGGCGUUCGACCCGCCCCCGGGAGAUUUUUUCCUCGAGCAA [U8A U21A U76C]: the nonsense suppression was ≤ 0.026.
As for CUCUCGGUACCCAAGUUGGUUUAAGGCGCAAGACUUUAAUUUAUCACUACGAAAUCUUGAGAUCGGGCGUUCGACUCGCCCCCGCGAGAUUUUUUCCUCGAGCAA [G10C G85C], the figure is ≤ 0.026.
With CUUUCGGUAGCCCAGUUGGUUUAAGGCGCAAGACUUUAAUUUAUCACUACGAAAUCUUGAGAUCGGGCGUUCGACUCGCCCCCGGGAGAUUUUUUCCUCGAGCAA [C3U A13C], the nonsense suppression was determined as 0.184.
As for CUCUCGGCAGCCAAGUUGGUUUAAGGCGCACGACUUUAAUUUAUCACUACGAAUUCUUGAGAUCGGGCGUUCGACUCGCCCCCGAGAAAUUUUUUCCUCGAGCAA [U8C A31C A54U G85A G88A], the figure is ≤ 0.026.
As for CUCUCGGUAAUCAAGUUGGUUUAAGGCGCAAGACUUUAAUUUAUCACUACGAAAUCUUGAGAUCGGGCGUUCGACUCGCCCCCGGGAGAUUUUUUCCUCGAGCAA [G10A C11U], the figure is ≤ 0.026; as for CUCUCGGUAGCCAAGUUGGUGUAAGGCGCAAGACUUUAAUUUAUCACUACGAAAUCUUGAGUUCGGGCGUUCGACUCCCCCCCGGGAGAUUUUUUCCUCGAGCAA [U21G A62U G78C], ≤ 0.026.
In the case of CUCUCGGUAGCCAAGUUAGUUUAAGGCGCAAGACUUUAAUUUAUCACUACGAAAUAUUGAGAUCGUGCGUUCGACUCGCCCCCGGGAGAUUUUUUCCUCGAGCAA [G18A C56A G66U], the nonsense suppression was ≤ 0.026.
As for CUCUCGGUAGCCAAGUAGGUUUAAGGCGCAAGACUUUAAUUUAUCACUACGAAAUCCUGAGAUCGGGCGUUCGACUCGCCCCCGGGAGAUUUUUUCCUCGAGCAA [U17A U57C], the figure is ≤ 0.026; as for CUCGCGGUAGACAAGUUGGUUUAAGGCGCAAGACUUUAAUUUAUCACUACGAAAUCUUGAGAUCGGGCGUUCGACUCGCCCCCGGGAGAUUUUUUCCUCGAGCAA [U4G C11A], ≤ 0.026; as for CUCUCGGUAGCCAAGUUGGCUUAAGGCGCACGACUUUAAUUUAUCACUACGAAAUCUUGAGAUCGGGCGUUCGACUCGGCCCCGCGAGAUUUUUUCCUCGAGCAA [U20C A31C C79G G85C], ≤ 0.026.
In the case of CUCUCGGUAGCCAAGUUGGUUUAAGGCGCAAGACGUUAAUUUAUCACUACGAAAUCUAGAGAUCGGGCGUUCGACCCGCCCCCGGGAGAUUUUUUCCUCGAGCAA [U35G U58A U76C], the nonsense suppression was ≤ 0.026.
As for CUCUCGGUAGCCAAGUUGGUUUGAGGCGCAAGACUUUAAUUUAUCACUACGAAAUCUUGAGAUAGGGCGUUCGACUCGCCCCCAGGAGAUUUUUUCCUCGAGCAA [A23G C64A G84A], the figure is ≤ 0.026; as for CUCUCGGUAGCCAAGUUGGUUUAAGGCGCAAGACUUUAAUUUAUCACUACGAAAUCUUGAGAUCGGGCGUUCGACUCGCCCGCGGGACAUUUUUUCCUCGAGCAA [C82G G88C], ≤ 0.026; as for CUCUCGGUAGCCAAGUUGGUUUAAGGCGGAAGACUUUAAUUUAUCACUACGAAAUCUUGAGAUCGGGCGUUCGACUCGGCCCCGGGAGAUUUUUUCCUCGAGCAA [C29G C79G], ≤ 0.026.
As for CUCUCGGUGGCCAAGUUGGUUUAAGGCGCAAGACUUUAAUUUAUCACUACGAAAUUUUGAGAUCGGGCGUUCGACUCGCCCCCGGGAGAUUUUUUCCUCGAGCAA [A9G C56U], the figure is ≤ 0.026; as for CUAUCGGUAGCCAAGUUGGUUUAAGACGCAAGACUUUAAUUUAUCACUACGAAACCUUGAGAUCGGGCGUUCGACUCGCCCCCGGGAGAUUUUUUCCUCGAGCAA [C3A G26A U55C], ≤ 0.026; as for CUCUCGGUAUCCAACUUGGUUUGAGGCGCAAGACUUUAAUUUAUCACUACGAAAUCUUGAGAUCGGCCGUUCGACUCGCCCCCGGGAGAUUUUUUCCUCGAGCAA [G10U G15C A23G G67C], ≤ 0.026.
As for CUCUCGGUAUCCAAGUUGGUUUAAAGCGCAAGACUUUAAUUUAUCACUACGAAAUCUUGAGAUCGGGCGUUCGACUCGCCCCCGGGAGAUUUUUUCCUCGAGCAA [G10U G25A], the figure is ≤ 0.026; as for CUCACCGUAGCCAAGUUUGUUUAAGGCGCAAGACUUUAAUUUAUCACUACGAAAUCUUGAGAUCGGGCGUUCGACUCGCCCCCGGGAGAUUUUUUCCUCGAGCAA [U4A G6C G18U], ≤ 0.026.

For the origin of these results see the RNAGym collection of RNA variant scans (doi:10.1101/gad.245936.114).
